# Measured values from PMC4336329 (PLoS ONE, 2015).
# Hit rate of the full screen: of about 310,000 compounds, about 14,000 (4.5%) showed an effect of 50% or more. Effects have a minus sign here. The list shows a part of the results.
# Molecular target: human ether-à-go-go-related gene (hERG) potassium channel (human, UniProt Q12809)
# Assay: primary screen, population patch clamp on CHO cells stably expressing hERG
# 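Note: peak tail current of the secondary pulse compared with the same well before compound.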
# human ether-à-go-go-related gene (hERG) potassium channel, sequence (Q12809 whole entry, looked up): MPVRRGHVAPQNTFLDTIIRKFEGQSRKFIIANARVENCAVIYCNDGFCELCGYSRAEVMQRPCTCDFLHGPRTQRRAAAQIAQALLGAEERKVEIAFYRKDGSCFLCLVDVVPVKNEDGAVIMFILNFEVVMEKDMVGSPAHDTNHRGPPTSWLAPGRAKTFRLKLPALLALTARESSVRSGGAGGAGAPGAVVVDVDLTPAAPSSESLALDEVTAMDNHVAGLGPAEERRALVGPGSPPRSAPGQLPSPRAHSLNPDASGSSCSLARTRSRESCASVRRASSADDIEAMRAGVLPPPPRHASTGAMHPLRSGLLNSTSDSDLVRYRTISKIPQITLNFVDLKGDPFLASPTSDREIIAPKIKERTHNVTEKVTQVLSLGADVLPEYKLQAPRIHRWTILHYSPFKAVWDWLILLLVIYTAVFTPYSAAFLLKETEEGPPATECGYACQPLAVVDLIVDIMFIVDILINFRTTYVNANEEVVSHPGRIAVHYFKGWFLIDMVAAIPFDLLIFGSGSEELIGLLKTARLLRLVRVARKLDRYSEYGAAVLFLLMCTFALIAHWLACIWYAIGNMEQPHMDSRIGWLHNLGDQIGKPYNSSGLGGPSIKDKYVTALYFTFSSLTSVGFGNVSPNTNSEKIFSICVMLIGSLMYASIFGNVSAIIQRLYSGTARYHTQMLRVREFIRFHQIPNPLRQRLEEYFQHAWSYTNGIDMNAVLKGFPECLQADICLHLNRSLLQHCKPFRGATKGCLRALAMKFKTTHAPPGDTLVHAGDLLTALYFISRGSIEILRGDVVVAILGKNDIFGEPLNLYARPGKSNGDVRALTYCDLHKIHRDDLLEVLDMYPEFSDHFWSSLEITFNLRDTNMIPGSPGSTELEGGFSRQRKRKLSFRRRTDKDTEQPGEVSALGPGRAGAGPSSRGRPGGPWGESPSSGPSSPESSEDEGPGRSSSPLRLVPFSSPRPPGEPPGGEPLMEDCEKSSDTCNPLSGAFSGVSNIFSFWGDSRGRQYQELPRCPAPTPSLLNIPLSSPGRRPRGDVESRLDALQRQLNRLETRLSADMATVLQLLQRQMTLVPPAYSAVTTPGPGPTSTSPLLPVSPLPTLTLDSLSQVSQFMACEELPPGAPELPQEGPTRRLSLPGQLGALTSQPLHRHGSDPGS
row,Compound,"hERG current change (%, negative = inhibition) at 10uM"
1,O=S(=O)(Nc1ccccn1)c1cccc(S(=O)(=O)c2ccc(Br)cc2)c1,1.32%
2,COc1cc(NC(=O)c2cccs2)ccc1NC(=O)c1ccccc1Cl,5.34%
3,COc1ccc(C(=O)CC(=O)c2ccc(OC)cc2)cc1,19.5%
4,COc1cccc(NC(=O)CSc2ccc(-c3sc(C)nc3C)nn2)c1,18.3%
5,O=C(NCc1ccc(F)cc1)C(c1ccccc1)N(C(=O)c1csnn1)C1CCCC1 (stereo not shown),-2.42%
6,O=C(CN1C(=O)CNC1=O)Nc1cccc(C(F)(F)F)c1,8.56%
7,O=C(O)c1ccc(NC(=S)NC(=O)c2cccnc2)cc1,20.8%
8,CS(=O)(=O)c1cccc(-c2nnc(NC(=O)C3=COCCO3)o2)c1,-8.49%
9,C=CCn1c(NC(=O)c2ccc(Br)o2)c(S(=O)(=O)c2ccccc2)c2nc3ccccc3nc21,-4.03%
10,Cc1ncc(CN2CCN(Cc3ccc(F)cc3)C(CCO)C2)s1 (stereo not shown),9.56%
11,COCCCNC(=O)CS(=O)Cc1nc(-c2ccccc2C)oc1C (stereo not shown),-7.39%
12,Cc1c(Cl)c([N+](=O)[O-])nn1CC(=O)N1CCCc2ccccc21,30.5%
13,O=C(CSCc1ccccc1)NNC(=S)Nc1cccc(Cl)c1Cl,2.47%
14,Cl.Clc1ccc(CSC2=NCCCN2)cc1Cl,-18.2%
15,CS(=O)(=O)N1N=C(c2ccccc2)CC1c1cccs1 (stereo not shown),0.0514%
16,C[C@@H]1CCC2[C@](C)(CO)[C@@H](O)CC[C@]2(C)[C@@]12CCC(CO)(CCO)O2 (stereo partly shown),26.8%
17,Cc1ccc(CN2CCN(CC(C)C)C(CCO)C2)s1 (stereo not shown),-21.5%
18,O=C(CN1C(=O)COc2ccccc21)N(CCCN1CCOCC1)CC1CC=CCC1 (stereo not shown),-29.2%
19,O=C(NCc1ccco1)C(c1cccs1)N(C(=O)C1COc2ccccc2O1)c1cccc(O)c1 (stereo not shown),-22.5%
20,O=C(NNC(=O)c1cccs1)c1cccnc1,6.86%
21,Nc1nc(CCl)nc(Nc2ccccc2)n1,20.7%
22,COc1cccc(C(=O)NCCSc2ccc(F)cc2)c1,-0.418%
23,O=C(CSCc1c(Cl)cccc1Cl)Nc1cccnc1,-17.8%
24,COc1cc(NC2c3ccccc3C(=O)N2c2ccc(C)cn2)cc(OC)c1OC (stereo not shown),-14.3%
25,Br.C=CCn1c(=N)n(CC(=O)c2cccc([N+](=O)[O-])c2)c2ccccc21,-56.7%
